“And” between values parts separate entries of the source, which are not always exact repeats. Identical values can stand only once.
Target: CD38 (ADP-ribosyl cyclase/cyclic ADP-ribose hydrolase 1), human (human, UniProt P28907 1-300)
Assay: cell-based or functional assay

B1: Bi38-3 (bispecific antibody, not shown: small tags and cut ends)
chain: DIQMTQSPASLSASVGETVTITCRASENIYSFLAWYQQKQGKSPQLLVYNTKTLTEGVPSRFSGSGSGTQFSLKINNLQPEDFGSYYCQHHYGIPLTFGAGTKLELKGGGGSGGGGSGGGGSQVQLQQSGAELARPGASVKLSCKASGYTFTSYWMQWVKQRPGQGLEWIGAIYPGDGDTRYTQKFKGKATLTADKSSSTAYMQLSNLTSEDSAVYYCARERTTGAPRYFDVWGAGTTVTVSSGGGGSGGGGSGGGGS[about 120 residues not shown]GGGGSGGGGSGGGGSVDDIQLTQSPAIMSASPGEKVTMTCSASSSVSYMNWYQQKSGTSPKRWIYDTSKLASGVPAHFRGSGSGTSYSLTISGMEAEDAATYYCQQWSSNPFTFGSGTKLELKAAA
T cell-mediated killing of KMS11 target cells (luciferase), EC50: ~5 ng/mL and ~0.09 nM
T cell-mediated killing of MM1.S cells (luciferase), EC50: 0.5 ng/mL
